# Data from ChEMBL document CHEMBL4888484, “Replenishing the malaria drug discovery pipeline: Screening and hit evaluation of the MMV Hit Generation Library 1 (HGL1) against asexual blood stage Plasmodium falciparum ,using a nano luciferase reporter read-out” (2022).
# Among all 150,000 compounds or so, about 540 (0.36%) showed an effect of 50% or more. The list shows a part of the results.
# System: Plasmodium falciparum
# Experiment: Primary screen in NF54 nanoGlo assay, in single point, at 2uM, 72h; a lower Z score goes with more inhibition
# Format: functional, Erythrocyte
# Settings: timepoint 72 hour
SMILES,% Inhibition,Z score
N#Cc1ccc(N[C@H]2CCCN(CCO)C2=O)c(F)c1,-14%,2.23
CCc1cnc(CNC(=O)N(CC)C2CC(C)(C)C2)s1,-4%,0.53
O=C(CN1CCc2cc(-c3ccccc3)oc2C1)N1CCOCC1,-13%,1.64
O=C(NCCc1ccccc1)c1cccc2c1C(=O)N(C1CCCCC1)C2,16%,-2.1
O=C(NC(=Nc1ccccc1)Nc1ccccc1)c1ccc(Cl)c(Cl)c1,-1%,0.17
Cc1noc(C)c1CCC(=O)N1C2CCC1CC(n1cccn1)C2 (stereo not drawn),-17%,2.2
COc1ccc(OC)c(CN[C@H]2CCCN(C)C2)c1,-6%,0.96
C[C@@]1(O)CCN[C@@H](c2ccccc2)[C@@H]1NC(=O)c1ccc(F)cc1,-3%,0.43
CCc1nn(C)c(OC)c1CNC(=O)Nc1cccc(C)n1,-2%,0.24
CC(C)(C)n1ncnc1CNC(=O)NCCOc1ccc(C#N)cc1,1%,-0.11
CC(C)(C)c1ccnc(N[C@H]2CO[C@H]3[C@@H]2OC[C@@H]3NC(=O)c2ccccc2)n1,12%,-1.35
CNC(=O)[C@@H]1C[C@H](Oc2ccccc2)CN1S(C)(=O)=O,-12%,1.64
c1cnc(Nc2nc(-c3cccs3)cs2)nc1,-9%,1.15
COc1ccc(Br)cc1CN1CCC[C@@H]1CN1CCCC1,1%,-0.2
COc1ncc(C(=O)NCCCn2ccnc2)cn1,-14%,1.29
Cn1cc(CN(C(=O)Cn2cnc3ccccc3c2=O)C2CCCCC2)cn1,-15%,1.41
CC[C@@H](C(=O)N1CC(Oc2ccccc2C)C1)N1Cc2ccccc2C1=O,-15%,2
O=C(c1ccc2ccccc2c1)N1CCC[C@H]1c1nc2ccccc2s1,36%,-1
Cc1nn(C)c(C)c1CCC(=O)N1CCN(C)Cc2ccccc21,-8%,0.64
Cc1ccc(Cn2c(=O)c(C(=O)NCc3ccncc3)nn(-c3ccc(C)c(C)c3)c2=O)cc1,-15%,1.5
Cc1ccc(CN2C(=O)[C@@H]3C[C@@H](O)CN3C3(CN(C(C)C)C3)C2=O)o1,26%,-2.97

SMILES,% Inhibition,Z score
CCCc1nnsc1C(=O)N[C@@H]1COCC[C@@H]1OCc1c(C)noc1C,-4%,0.66
CCc1nc(-c2ccc(-c3noc(-c4ccco4)n3)cc2)cs1,-24%,2.45
CC(NC1CCN(C)C1c1ccccc1)C(=O)NCC1CCCO1 (stereo not drawn),0%,-0.08
COc1ccc(C2=NS(=O)(=O)N(C)C(C(=O)N3CCCc4ccccc43)=C2)cc1OC,-2%,0.31
Cc1occc1-c1nc(-c2cc(CN3CCOCC3)c[nH]c2=O)no1,29%,-3.25
COC(=O)c1ccc(F)c(NCC(=O)NC(N)=O)c1,4%,-0.51
O=C(NCCc1ccco1)c1ccc(Nc2ncccn2)cc1,-15%,1.92
CCn1c(COC(=O)c2cnccn2)nc2cc(S(=O)(=O)N(C)C)ccc21,-6%,0.9
CCOc1ccccc1-c1cc(C(=O)Nc2nc(-c3cc(C)ccc3C)c(C)s2)c2ccccc2n1,-30%,3.48
O=C(Nc1cccc(Cl)c1)c1nnc(C(=O)N2CCC[C@H](C(=O)NCCN3CCCC3)C2)s1,-23%,1.99
CO[C@H]1CN(C2CCN(C(=O)c3cccc(C)c3)CC2)[C@H]1c1cccnc1,-19%,2.18
Oc1cc(OCc2ccccc2F)ccc1-c1[nH]ncc1-c1ccccc1,52%,-11.1
COc1cnc(C(=O)N2CCC(C)CC2)cc1O,-2%,0.46
CCc1nnc2n1CCN(C(=O)C1CC1c1cccc(F)c1)C2 (stereo not drawn),-12%,2.07
CCOc1c(CNC(C)(C)C)cccc1OC,39%,-5.59
CN1CCC[C@H]1c1cc(C(=O)NCC2(c3ccccc3)CC2)[nH]n1,-11%,1.97
N#CCC(=O)Nc1nc(C2CC2)c(Cc2ccc(F)cc2)s1,-4%,0.42
COc1cccc([C@H](C)NC(=O)c2cnc(-c3cccnc3)nc2O)c1,2%,-0.24
COCCc1noc(CNC(=O)c2cnc(-c3ccc(C)cc3)nc2O)n1,-9%,0.88
CCc1cnc(NC(=O)NCc2csc(NC)n2)s1,35%,-3.91
CC(=O)N[C@H](C(=O)N(C)c1nc(C)cs1)C(C)C,4%,-0.65

SMILES,% Inhibition,Z score
Cc1ccc(CCC(=O)N[C@H]2CCc3ccccc32)cc1,1%,-0.11
O=C1N(c2cccc(F)c2)Cc2nn(Cc3ccccc3)c(=O)n21,2%,-0.47
CCn1nc(Cc2c(Cl)cccc2Cl)nc1[C@H](C)NC,-3%,0.59
Cc1nc(CCNC(=O)CCC2=NNC(=O)CC2)sc1Cl,2%,-0.3
CCc1ncc(C(=O)N2C[C@H]3CC[C@@H](C2)N(CC2CCC2)C3=O)cn1,-10%,1.18
Cc1c(C(F)(F)F)nn(C)c1NC(=O)N[C@H]1[C@H](c2ccccc2)C1(C)C,-7%,1.29
Cc1cccc(CN2CCC(N3C(=O)N4CCC[C@@]4(C)C3=O)CC2)c1,-3%,0.56
COc1ccc(-n2nc(Nc3cccc4cccnc34)c(C(C)=O)n2)cc1,6%,-0.69
CN(C(=O)Cn1c(=O)n(C)c2ccccc21)[C@H]1CCS(=O)(=O)C1,-9%,1.54
Cc1ccc(C)c(-c2n[nH]cc2CN(C)[C@@H](C)C(=O)N(C)C)c1,-18%,1.77
CC(C(=O)N1Cc2ccccc2CC1c1ccccc1)C1CCOCC1 (stereo not drawn),-14%,1.73
CN1C[C@@H]2CC[C@H]1CN(C(=O)Nc1cccc3ccccc13)C2,-5%,0.92
O=C(CCN1CCN(c2ccccc2Cl)CC1)NC1CCCC1,-3%,0.4
Cc1c(NC(=O)CN(Cc2cccnc2)Cc2ccsc2)cnn1C,1%,-0.24
Cc1cccc(C(=O)N2CCC[C@]3(CCC(=O)N(C4CCCC4)C3)C2)c1O,0%,-0.07
O=C(Nc1ccnn1CC1CC1)c1sccc1C1CC1,3%,-0.47
O=C(c1cn(-c2ccccn2)c(=O)c2ccccc12)n1ccnc1,-16%,1.94
O=C(c1cc(C(F)F)[nH]n1)N1CCC[C@H]1COc1ccc(F)cc1,0%,-0.04
N#Cc1cnc(NC(CO)CO)c(Cl)c1,31%,-3.5
Cc1ccc(CN2CCN(C(=O)N3CCCC3)[C@H]3CS(=O)(=O)C[C@H]32)o1,-2%,0.47
Cc1nc(CN2CCN(CC(C)C)[C@@H]3CS(=O)(=O)C[C@@H]32)n(C)n1,-9%,1.44

SMILES,% Inhibition,Z score
O=c1[nH]cnc2c(N3CCOC4(CCOCC4)CC3)nccc12,-6%,1.22
C[C@@H](C(=O)Nc1ccc2c(c1)OCCCO2)N1CCC(O)CC1,-6%,0.84
CCCCc1cc(C[C@H]2CNCC[C@H]2CC(=O)N2CCN(c3ccccn3)CC2)no1,-12%,2.27
C[C@](O)(C(=O)N1CC[S+]([O-])CC1)c1ccccc1C(F)(F)F,-1%,0.14
O=C(C[C@H](c1cccs1)c1cn(Cc2ccc(F)cc2)c2ccccc12)NCc1ccccc1,-16%,1.61
CC(C)C(=O)N(Cc1ccccc1OS(=O)(=O)c1ccc(F)cc1)CC1CC1,0%,0.05
O=C(N[C@H](C(=O)O)c1ccccc1)c1cccc(Cl)c1,-6%,0.73
CC1=C(C(=O)N(C)C[C@H]2CCOC2)OCCO1,-12%,1.91
Cc1nn(C)c(C)c1-c1nc2c([nH]1)c(C)nn2-c1ccccc1,-14%,2.62
COc1ccc([C@@H]2Cn3nnc(C(=O)N(C)CCc4ccccn4)c3CO2)cc1,-11%,1.27
Cc1ccc(CC(=O)Nc2cc(C)on2)cn1,-1%,0.23
COCCc1noc([C@H](C)NC(=O)c2ccc[nH]2)n1,-14%,1.82
NS(=O)(=O)N1CCC2CCCCC2C1 (stereo not drawn),-10%,1.26
C[C@H](NC(=O)NOCc1ccccc1)c1ccc2c(c1)CC(=O)N2,27%,-3.04
Cn1ccc([C@@H]2CCCCN2C(=O)Cn2cnc3ccccc3c2=O)n1,-17%,2.34
Cn1ccnc1C(=O)N1CC[C@@H]2CN(Cc3ccccc3)[C@@H]2C1,-4%,0.52
O=C(Cc1ccc(F)cc1)NCc1ccnc(-c2ccsc2)c1,0%,-0.01
O=C(Nc1ccc(OCc2ccccc2)cc1)c1ccc2ccccc2n1,-4%,0.54
CCN=C(NCCC(F)(F)F)NC[C@H](C)c1c(C)noc1C,-3%,0.35
O=C(Nc1ccc(F)c(N2CCS(=O)(=O)CC2)c1)C1=CCCC1,-6%,1.16
CCNC(=O)c1nn(CC2CC2)c2c1CN(Cc1ccccn1)CC2,-4%,0.58
